What all share (assay): Primary Screen for Target Class Profiling of Small Molecule Inhibitors of Methyltransferases
Assay [1] addresses Glycine N-methyltransferase (Homo sapiens) (UniProt Q14749). The settings on record: purified enzyme, MTase-Glo SAH luminescence; measured here: GNMT inhibition; at 40 µM; stronger effect = lower value. An outline of the steps:
(§1)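 Each enzyme was reacted with SAM and its substrate, with compounds tested once at 40 uM; SAH formed was read by MTase-Glo luminescence.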

Assay [2] addresses Guanidinoacetate N-methyltransferase (Homo sapiens) (UniProt Q14353). The settings on record: purified enzyme, MTase-Glo SAH luminescence; measured here: GAMT inhibition; at 40 µM; stronger effect = lower value. An outline of the steps: as §1
Assay [3] has as its target Histamine N-methyltransferase (Homo sapiens) (UniProt P50135). The settings on record: purified enzyme, MTase-Glo SAH luminescence; measured here: HNMT inhibition; at 40 µM; stronger effect = lower value. Summed up: as §1
For assay [4], the target named is Nicotinamide N-methyltransferase (Homo sapiens) (UniProt P40261). The settings on record: purified enzyme, MTase-Glo SAH luminescence; measured here: NNMT inhibition; at 40 µM; stronger effect = lower value. Summed up:
as §1

Assay [5] addresses Phenylethanolamine N-methyltransferase (Homo sapiens) (UniProt P11086). As to conditions: purified enzyme, MTase-Glo SAH luminescence; measured here: PNMT inhibition; at 40 µM; stronger effect = lower value. An outline of the steps: as §1

Each structure is given as a SMILES string. The list shows a part of the results. Further columns of the screen follow, without active or inactive calls.

Our source for the activity change, negative = inhibition values is PubChem BioAssay AID1745853 (National Center for Advancing Translational Sciences (NCATS), 2022).
% is scaled to controls: 0 for no effect and ±100 for the full control effect.

On to `COc1ccccc1CNC(=O)C1(C)Cn2c(cc3ccccc32)C(=O)N1Cc1ccc(C)cc1` (stereo not given), for which the activity change, negative = inhibition is -2.35% in assay [1]; 3.88% in assay [2]; 1.24% in assay [3]; -12.6% in assay [4]; -3.86% in assay [5].

With `COc1cccc(CNC(=O)Nc2cccc(-c3ccc(N4CCCCC4)nn3)c2)c1`, the activity change, negative = inhibition was -19.3% in assay [1]; -19.8% in assay [2]; -18.8% in assay [3]; -27% in assay [4]; -32.2% in assay [5].

For `CCc1cc2c(cc3n2CC(C)(C(=O)NC2CCC(C)CC2)N(CCC(C)C)C3=O)s1` (stereo not given), the activity change, negative = inhibition in assay [1] was -6.01%; in assay [2], 3.98%; in assay [3], -1.11%; in assay [4], -0.856%; in assay [5] it was -1.84%.

Turning to `COc1cc(/C=C/C(=O)NCCn2c(C(F)(F)F)cc3ccccc32)cc(OC)c1OC`, the activity change, negative = inhibition in assay [1] was 3.05%; in assay [2] it was 3.91%; in assay [3], -2.05%; in assay [4] it was -9.47%; in assay [5], 3.63%.

As for `COc1c(CCC(=O)O)cccc1O[C@@H]1O[C@H](CO)[C@@H](O)[C@H](O)[C@H]1O`, the activity change, negative = inhibition in assay [1] is 5.51%; in assay [2], 2.56%; in assay [3], 6.78%; in assay [4] it was -9.06%; in assay [5], 6.13%.

Turning to `O=C(CCCc1nnc2n3nc(-c4ccccc4)nc3c3ccccc3n12)N1CCC(N2CCCCC2)CC1`, the activity change, negative = inhibition is -4.92% in assay [1]; -0.6% in assay [2]; -60.5% in assay [3]; 2.98% in assay [4]; -3.57% in assay [5].

As to `OCC(O)C(c1c[nH]c2ccccc12)c1c[nH]c2ccccc12` (stereo not given), the activity change, negative = inhibition was -9.44% in assay [1]; -6.4% in assay [2]; 2.35% in assay [3]; -16.3% in assay [4]; -15.4% in assay [5].

Turning to `CC1(C(=O)NC2CCCCCCC2)Cn2c(cc3occc32)C(=O)N1C1CCCC1` (stereo not given), the activity change, negative = inhibition in assay [1] is -1.95%; in assay [2] it was 3.57%; in assay [3] it was -0.881%; in assay [4] it was -4.05%; in assay [5] it was -3.77%.

`O=C(Cn1ccc2cc(S(=O)(=O)N3CCCCC3)ccc21)NCCc1ccccc1Cl`: the activity change, negative = inhibition in assay [1] was 2.18%; in assay [2], 4.72%; in assay [3] it was -6.39%; in assay [4] it was -3.17%; in assay [5], -3.39%.

As to `COc1cccc(C(=O)N2CC3(Cc4ccccc4N(C(C)=O)C3)C2)c1`, the activity change, negative = inhibition is -5% in assay [1]; -4.38% in assay [2]; -1.49% in assay [3]; -11.7% in assay [4]; 7.39% in assay [5].

For the compound `CN(C)C(=O)Oc1cccc([N+](C)(C)C)c1`, the activity change, negative = inhibition in assay [1] is 5.74%; in assay [2], 13.1%; in assay [3], 11.7%; in assay [4], -4.18%; in assay [5], 3.8%.

For `CC(NC(=O)OCc1ccccc1)c1nc2cccnc2n1C1CCCCC1` (stereo not given), the activity change, negative = inhibition in assay [1] was -7.28%; in assay [2], -5.45%; in assay [3] it was -2.25%; in assay [4] it was -15.4%; in assay [5] it was -6.36%.

As to `Cc1ccc2c(c1)C(N1CCN(C)CC1)=Nc1cccnc1N2`, the activity change, negative = inhibition is -13.3% in assay [1]; 11.5% in assay [2]; 7.61% in assay [3]; -7.95% in assay [4]; -1.49% in assay [5].

For `O=C(Cn1c2c(c(=O)n1Cc1ccccc1)CCN(Cc1ccccc1)C2)NCc1cccc(Cl)c1`, the activity change, negative = inhibition in assay [1] is -7.84%; in assay [2] it was -8.02%; in assay [3], -5.38%; in assay [4], -17.7%; in assay [5], -9.62%.

Consider `CCCN1C(=O)c2c(C(=O)NCc3cccc(Br)c3)ncn2CC1(C)C(=O)NC1CCCC1` (stereo not given), for which the activity change, negative = inhibition is -3.23% in assay [1]; 0% in assay [2]; 2.68% in assay [3]; -5.57% in assay [4]; 4.82% in assay [5].

As to `O=c1[nH]cnc2[nH]ncc12`, the activity change, negative = inhibition in assay [1] is 2.18%; in assay [2] it was 9.06%; in assay [3] it was 8.82%; in assay [4], -4.69%; in assay [5], -1.98%.

Take `C=C[C@@]1(C)CCC2C(=CCC3[C@]2(C)CCC[C@@]3(C)C(=O)O)C1` (stereo not given in full): the activity change, negative = inhibition is -0.83% in assay [1]; -17.5% in assay [2]; 3.74% in assay [3]; -37.6% in assay [4]; -10.4% in assay [5].

For the compound `COc1ccc(CNc2nc3c(-c4ccccc4)nnn3c3ccccc23)cc1`, the activity change, negative = inhibition in assay [1] is -3.6%; in assay [2], 3.39%; in assay [3] it was 0.044%; in assay [4], -5.89%; in assay [5], -3.87%.

Turning to `CC1CC(O)/C=C/C(O)C(O)CC(=O)Cc2c(Cl)c(O)cc(O)c2C(=O)O1` (stereo not given), the activity change, negative = inhibition was 4.03% in assay [1]; 3% in assay [2]; 10.4% in assay [3]; -8.03% in assay [4]; -1.53% in assay [5].

For `CN1CCN(C2CCN(C(=O)Nc3cc(Oc4ccc(NC(=O)C5(C(=O)Nc6ccc(F)cc6)CC5)c(F)c4)ccn3)CC2)CC1`, the activity change, negative = inhibition in assay [1] was 3.2%; in assay [2], 14%; in assay [3], -4.11%; in assay [4], 1.96%; in assay [5] it was 4.74%.

In the case of `CC1(C(=O)NC2CCCCCCC2)Cn2c(cc3occc32)C(=O)N1Cc1ccccc1Cl` (stereo not given), the activity change, negative = inhibition in assay [1] was -2.43%; in assay [2] it was 3.39%; in assay [3], -1.05%; in assay [4], -1.45%; in assay [5] it was 0.027%.

`COc1cccc(C(=O)NCC2CCCN(Cc3ccccn3)C2)c1OC` (stereo not given): the activity change, negative = inhibition was -1.96% in assay [1]; -0.742% in assay [2]; -0.674% in assay [3]; -2.48% in assay [4]; -7.64% in assay [5].

For `CC(C)Cn1c(=O)c2ccccc2n2c(SCC(=O)Nc3cc(F)ccc3F)nnc12`, the activity change, negative = inhibition is 3.04% in assay [1]; 5.42% in assay [2]; 11.4% in assay [3]; 3.25% in assay [4]; 4.5% in assay [5].

As to `CCOCCOC(=O)C(C)Oc1ccc2c(=O)c(-c3ccc(OC)c(OC)c3)c(C(F)(F)F)oc2c1` (stereo not given), the activity change, negative = inhibition was -13.5% in assay [1]; 1.85% in assay [2]; 2.85% in assay [3]; 0.694% in assay [4]; -3.18% in assay [5].

In the case of `COc1ccc(Cl)cc1NC(=O)CSc1nnc2n(CC(C)C)c(=O)c3ccccc3n12`, the activity change, negative = inhibition was -4.67% in assay [1]; -0.669% in assay [2]; 2.72% in assay [3]; -6.82% in assay [4]; -4.25% in assay [5].

For the compound `CCc1cc2c(cc3n2CC(C)(C(=O)NC2CCCCCC2)N(Cc2ccc(Cl)cc2)C3=O)s1` (stereo not given), the activity change, negative = inhibition in assay [1] is 4.52%; in assay [2] it was 1.38%; in assay [3] it was 8.18%; in assay [4], 6.5%; in assay [5], 4.64%.

In the case of `O=C1CCC2(CNC(=O)c3cccnc3)CCCC=C2N1` (stereo not given), the activity change, negative = inhibition in assay [1] was -5.02%; in assay [2], -2.38%; in assay [3], -0.714%; in assay [4], 20.2%; in assay [5], 4.75%.

In the case of `CCCn1c(=O)c2ccc(C(=O)NC3CCCCC3)cc2n2c(=O)n(CC(=O)Nc3ccccc3)nc12`, the activity change, negative = inhibition in assay [1] is 7.49%; in assay [2] it was 1.4%; in assay [3], 10.7%; in assay [4], 2.8%; in assay [5], 6.27%.

For the compound `C=Cc1ccc(Cn2nc3n(Cc4ccccc4)c(=O)c4ccc(C(=O)NC5CCCC5)cc4n3c2=O)cc1`, the activity change, negative = inhibition in assay [1] is -2.16%; in assay [2] it was -0.212%; in assay [3], 1.72%; in assay [4], -2.45%; in assay [5], -5.08%.
